# From the supplement of paper PMC11417369
# This is one part of the list.
# Test system: PF3D7_0420300 AP2 domain 1 (GST-tagged)
# Experiment: gcPBM binding intensity (ln(normalized median fluorescence intensity)); higher = stronger DNA binding
# Procedure, shortened: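 Binding intensity is the highest Masliner-normalised natural-log median intensity over replicate spots in either probe orientation. To obtain it, GST-tagged P. falciparum DNA-binding domains made in E. coli were incubated for 1 h on an Agilent 4 × 180k array of primer-extended double-stranded 36-bp intergenic genomic probes plus negative controls. Detection used Alexa488 anti-GST antibody with scanning at 488 nm.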
row,Sequence,gcPBM binding intensity (ln)
1,AAATAAAGGAAATGTATATCAACATTAAAATAAGGC [CACACA_negctrl_site441],9.7
2,TATATGTATGTTTGTGTGCACACATAAATATTATAT,9.94
3,CATTTAAAATTTGTTTGTACATATATATATATATAT [XGTACX_site6729],9.24
4,TTTTACAATAACAATACACACTATAATATGTAAATA [CACACA_site6772],9.46
5,ATATATATATATATATGTACTTATGTCATCATTAAA [XGTACX_site5316],9.07
6,ACGAAGTATATGAATACACACATATTTTTAATGAAA [CACACA_site4070],9.34
7,AGTAAATTTGATGGTCGTACAAAAAAAAAGTAGGAC [XGTACX_site2600],9.58
8,ATATACATAATTTGGAGTACAATATCATATAAATAT [XGTACX_site6334],9.25
9,TTTTTAATCAGAAATATTTATTAAAGAATTTTATAG [GTGCAC_negctrl_site725],8.66
10,GGATAATATATTAGAACACACATATATATGTAAAAA [CACACA_site185],9.42
11,ATGGAATAATCACGTACACACAAGAAAAAAAAAAAT [CACACA_site527],10
12,ATTACAAATACAAACACACAAATGTTTTTCATTCAA [CACACA_site7639],9.35
13,TTTTATTTGACAAGCACACACTTAAATATATATATA [CACACA_site5792],9.27
14,AAACAAAAAATAAAATGTACATTTATTACGATAAGT [XGTACX_site2392],9.58
15,TAGTATAATATGAACACACACACACCGACAAAAAAA [CACACA_site5151],9.99
16,AATTGAAAAAGAAATTGTACATTTTATTTTTATTAT [XGTACX_site1973],9.07
17,ATATAATTTATATATTCACACAAGGAATACTTTTAT [CACACA_site5506],9.18
18,ACTATACAGTTATACACACACATATATCTATAATAT [CACACA_site6283],9.8
19,AATAAAATATATTCCTGTACATATGATTCTTTTTTT [XGTACX_site7980],9.3
20,TTTACATATTTATATACACACTTTTGCGTGCGTGGT [CACACA_site6647],9.21
21,ATACATATATATATATGTACATATGTATTTTTTATT [XGTACX_site105],9.38
22,TCAATAAATATACATACATGCATACATACATACATA [TGCATGCA_site197],9.23

row,Sequence,gcPBM binding intensity (ln)
1,TGTGTTAATATGAATTTAAACATAAATAAATAAATA [CACACA_negctrl_site1589],8.95
2,GAACATTTATTGTGTGTGCACAATTCTTTTTTAACC [GTGCAC_site9697],9.49
3,AATTTTCAATAGTATACACACAATTATATATATATA [CACACA_site1116],9.42
4,TCTTTTCTCGGAAGGGTGCAAGGAATTAATGAAATA [GTGCAC_site9706],8.99
5,TATATATGTAGACGTTGTACTTTTTTGTAAGTTTAA [XGTACX_site5638],9.13
6,TTTAAATTTTTATATTGTACTTTATTTATTTATTTA [XGTACX_site869],9.26
7,TGTGTCAAGTTTAATAAACGCATATAATATATATGA [CACACA_negctrl_site607],8.93
8,CATGACATATCCTGTAGTACAACGTATATATAAGAT [XGTACX_site2577],9.45
9,AAAATAAAATCATAAAGTACAAAAAGAAAATAAAAA [XGTACX_site7376],9.53
10,TTTAATTTTTATATAACACACATATTGTAATTATGT [CACACA_site4566],9.38
11,ATGTTTAATTAAATATGTACTTATTATATTATATGT [XGTACX_site8137],9.46
12,AGGAATCTACATATATGTACATATATTGATATATTT [XGTACX_site137],9.37
13,ACTAAAAGGCTTAAATGTACATATTATATATATATA [XGTACX_site5897],9.21
14,ATAATTTCTATTTCACAAAAAAAAAAAAAAAAAAAA [CACACA_negctrl_site1012],8.37
15,ACATAACTTATATATACACACAATACAAATATATAT [CACACA_site2774],9.81
16,CTTTTTTTTTTGGGGGTGCATGCAAGACATATATTT [GTGCAC_site9660],9.47
17,GATATGATTATGTGATGGTGTTTTTGATAGATATTT [CACACA_negctrl_site1445],9.57
18,GAATAATTAAAAGGTAGTACAAAGGTTATCAAAAGG [XGTACX_site8496],9.42
19,TTGTTCTTTTGAAAGGTGCAAAAGAAAAATAATTAA,8.94
20,AGAAAACCGAAAGAGACACACAACATGTCGATTTAG [CACACA_site3764],9.62
21,ATAAAGATAATATATGCACACATATAAATATATAAA [CACACA_site9153],9.37
22,ATAAAAACTACATTCACACAAAAAAAAATCTACAAA [CACACA_site6109],9.38

row,Sequence,gcPBM binding intensity (ln)
1,AATAATATTAATAAAAGTACATGTGTAATATATATA [XGTACX_site5922],9.51
2,ATATATATATGTTAGGTGCATATATATTTTGTGGAT [GTGCAC_site9964],9.34
3,ATATATATAATATATTGTACATATAATATATATATA [XGTACX_site4792],9.09
4,ACATCTAGGCTTATTTTATGATACATGTGAATATAT [TGCATGCA_negctrl_site325],9.33
5,GTTTTTGAGTAGTACACACACAATAAGGATGGATTC [CACACA_site3192],9.75
6,TGAAAAGATAAAAAATGTACATATATATTATATATA [XGTACX_site5678],9.24
7,TTTCTAAATAATATACACAAAAAAATAAAACACTAA [TGCATGCA_negctrl_site43],9.45
8,ATACACAATTATTTTCCTATTATGCAAGCAAATTTA [CACACA_negctrl_site1176],9.13
9,GTTTAACTGTTTTATACACACAATGTAGACAATAAA [CACACA_site8967],9.39
10,GTACAAAAAAAGTGTACACAAAGTAAGACTTTAATT [CACACA_site5068],9.28
11,CACTGTAAATAGAAAGTGCAAAAATTGTAAATAAAA [GTGCAC_site9980],9.26
12,TAAATACATTGACACACACACAAATATGTACATACA [CACACA_site7371],10
13,ACTTGATTACACAACCACAAGTAATTGAAATTATTT [XGTACX_negctrl_site297],9.33
14,AGTTTTATGTAGTGTTGTACTTTATACAAATATATA [XGTACX_site990],9.34
15,AGTAATAATATAATTTGTACATATATATATTATAAA [XGTACX_site7138],9.06
16,TACAAAAATGTAGTCACACATATGTATACTTTTATG [CACACA_site5607],9.21
17,TTTCTAATTTATATCACACACATATATAAATAGTAA [CACACA_site6156],9.43
18,ATATATATAATTTAAAGTACATATTTAAGAATGAAA [XGTACX_site2238],9.16
19,AATGTTTAATATAACGCATGCCTTAATATAGAATGC [TGCATGCA_site463],9.13
20,TATCATGTGCGTGCGTGTACTTAACACACATAATAT [XGTACX_site2404],9.35
21,TATTTTTATAAAAACTGTACATAATAAATAAAAATA [XGTACX_site4743],9.19
22,AATCAAAGTAATTTAACACACAATTTTAATACTGTT [CACACA_site7169],9.41

row,Sequence,gcPBM binding intensity (ln)
1,TTATATGTTTCTTCACGTACGTATAAAAATGAACTT [XGTACX_site1764],9.13
2,TTGTTCATTATGCACAGTACATAAAAAGTAAAAAAA [XGTACX_site2403],9.09
3,TCATTTATTTTAAGGTGTACCGTTTAAAATCACAAA [XGTACX_site3243],8.88
4,ATATTGACAAATATTACACACATATATATATATATA [CACACA_site4079],9.43
5,TTTTTTTGCGCGGGAAGAATAAAATTTATAGAATAT [TGCATGCA_negctrl_site306],9.01
6,AATTTACACGTACGTGTACACACAAAAATATGTTTT [CACACA_site8242],9.56
7,CAGACATTAATAAGTAGTACACAATAATTGACTAGG [XGTACX_site854],9.48
8,TCTCATTTTCCCTAAAAAAAAAAATAAATAAAAATA [TGCATGCA_negctrl_site580],8.63
9,TTTTTCCATATTGTAGCATGCAGTATATATATCATG [TGCATGCA_site530],9.24
10,ATATTATTTATGTATGCATGCGGCGAAATGGGCTTG [TGCATGCA_site28],9.36
11,AATGGGTTACACATATGTACATAAAATATAAAAAAT [XGTACX_site3440],9.42
12,TATATACATATATATATATGTATAGATAGATACATT [CACACA_negctrl_site1511],9.19
13,TAACCACAATTTTAATGTACATATATATTTATATAT [XGTACX_site8968],9.12
14,TTTTGAAAAAATTTTTATAAAAGAATAAAATTATTA [XGTACX_negctrl_site570],8.55
15,AATATTTTACAATACACATGCAAATAATATTCTAAA [TGCATGCA_site618],9.17
16,TAAAAATGGAAACACACACACATAAATATATTTTAT [CACACA_site2513],10.1
17,AAAAAAAAAAAACACACACACACACCCAAATATATA [CACACA_site150],10.1
18,CATAATACATATAACACACACAATTATACATAAAAT [CACACA_site3233],10.1
19,ATATATATATATATATGTACTTAAAAAATATATACA [XGTACX_site8952],9.07
20,AAAAAAAAAAAAAAAAAAAAAAAAAAAATACGAAAG [GTGCAC_negctrl_site729],9.18
21,CTTTTTAATTAATACACACACACACGGATATAAATA [CACACA_site7145],10.2
22,TATTTTTTTTGTGTGTGTCCTCATGTAATACTGCAA [XGTACX_site1380],9.66
